# Results from the supplement of paper PMC8728848.
# The other results are listed elsewhere or left out.
# B1: rEtpA (Escherichia coli) (protein)
# chain: MNRIYKLKFDKRRNELVVVSEITTGVGNAKATGSVEGEKSPRRGVRAMALSLLSGMMIMAHPAMSANLPTGGQIVAGSGSIQTPSGNQMNIHQNSQNMVANWNSFDIGKGNTVQFDQPSSSAVALNRVVGGGESQIMGNLKANGQVFLVNPNGVLFGEGASVSTSGFVASTRDIKNDDFMNRRYTFSGGQKAGAAIVNQGELTTNAGGYIVLAADRVSNSGTIRTPGGKTVLAASERITLQLDNGGLMSVQVTGDVVNALVENRGLVSARDGQVYLTALGRGMLMNTVLNVSGVVEASGMHRQDGNIVLDGGDSGVVHLSGTLQADNASGQGGKVVVQGKNILLDKGSNITATGGQGGGEVYVGGGWQGKDSNIRNADKVVMQGGARIDVSATQQGNGGTAVLWSDSYTNFHGQISAKGGETGGNGGRVETSSHGNLQAFGTVSASAKKGKAGNWLLDSADITIVNGSNVSKTETTQSPPHTQFAPTAAGSAVSNTSINNRLNNGTSVTILTHRTRTGTAQGGNITVNAAINKSNGSDVNLTLQAGGNITVNNSITSTEGKLNVNLSGARTSNGSITISNNANITTNGGDITVGTTNTSNRVNISINNTTLNASNGNIQLTGTGTDSGILFAGNNRLTASNIALTGNSTSGNAINLTGTATLNATNNITLTGSSTSGNAINLKGNNTLTASNITLTGESTSGNAINLTDTTGTTTLNATNNITMQGTRVQIKHSNITAGNFALNATVAGSEISNTTLTATNNINLAAKTNSASSGVYLKDARITSTNGSITANGTATANGKATHLDGNVTLNASNGRIKLTGNGHGSASGILFAGNNRLTASNIALTGNSTSGNAINLTGTATLNATNDITLTGSSTSGNAINLTGTATLNATNNITLTGSSTSGNAINLKGNNTLTASNITLTGESTSGNAINLTDTTGTTTLNATNNITMQGTRVQIKHSNITAGNFALNATVAGSEISNTTLTATNNINLAAKTNSASSGVYLKDARITSTNGSITANGTATANGKATHLDGNVTLNASNGRIKLTGNGHGSASGILFAGNNRLTASNIALTGNSTSGNAINLTGTATLNATNDITLTGSSTSGNAINLTGTATLNATNNITLTGSSTSGNAINLKGNNTLTASNITLTGESTSGNAINLTDTTGTTTLNATNNITMQGTRVQIKHSNITAGNFALNATVAGSEISNTTLTATNNINLAAKTNSASSGVYLKDARITSTNGSITANGTATANGKATHLDGNVTLNASNGRIKLTGNGHGSASGILFAGNNRLTASNIALTGNSTSGNAINLTGTATLNATNDITLTGSSTSGNAINLTGTATLNATNNITLTGSSTSGNAINLKGNNTLTASNITLTGESTSGNAINLTDTTGTTTLNATNNITMQGTRVQIKHSNITAGNFALNATVAGSEISNTTLTATNNINLAAKTNSASSGVYLKDARITSTNGSITTNGTATANGKATHLDGNVTLNASNGRIKLTGNGHGSASGILFAGNNRLTASNIALTGNSTSGNAINLTGTATLNATNDITLTGSSTSGNAINLTGTATLNATNNITLTGSSTSGNAINLKGNNTLTASNITLTGESTSGNAINLTDTTGTTTLNATNNITMQGTRVQIKHSNITAGNFALNATVAGSEISNTTLTATNNINLAAKTNSASSGVYLKDARITSTNGSITANGTAPANDNATYLDGNVTLNASNGSIKLTGNGNGSTSGILFAGNNTLTASNITLTGNSEVYWQKLGPEQKLISEEDLNSAVDHHHHHH
# Legend:
# Experiment in all cases: glycan array binding signal (z-score within array); higher = stronger binding
# Conditions in all cases: glycan notation: IUPAC condensed, linker removed
# Glc(b1-6)Glc = target: Glc(b1-6)Glc
# Method in brief: (§1)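 Arrays were curated from the Consortium for Functional Glycomics database, 3228 in total, and kept only where the protein sequence was available. Binding is expressed as a within-array Z-score. This score was averaged across arrays of the same protein sequence at different concentrations or buffers and across linkers, and negative values can be read as non-binding.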
# GlcA(b1-3)Gal = target: GlcA(b1-3)Gal
# Method in brief: as §1
# GlcA(b1-3)GlcNAc = target: GlcA(b1-3)GlcNAc
# Method in brief: as §1
# GlcA(b1-6)Gal = target: GlcA(b1-6)Gal
# Method in brief: as §1
# [1] = target: GlcA3S(b1-3)Gal(b1-4)GlcNAc(b1-2)Man
# Method in brief: as §1
# [2] = target: GlcA3S(b1-3)Gal(b1-4)GlcNAc(b1-3)Gal(b1-4)Glc
# Method in brief: as §1
# [3] = target: GlcNAc(a1-3)Gal(b1-4)GlcNAc
# Method in brief: as §1
# [4] = target: GlcNAc(a1-4)Gal(b1-3)GlcNAc
# Method in brief: as §1
# [5] = target: GlcNAc(a1-4)Gal(b1-4)GalNAc
# Method in brief: as §1
# [6] = target: GlcNAc(a1-4)Gal(b1-4)GlcNAc
# Method in brief: as §1
# [7] = target: GlcNAc(a1-4)Gal(b1-4)GlcNAc(b1-3)Gal(b1-4)Glc
# Method in brief: as §1
# [8] = target: GlcNAc(a1-4)Gal(b1-4)GlcNAc(b1-3)Gal(b1-4)GlcNAc
# Method in brief: as §1
# [9] = target: GlcNAc(a1-4)Gal(b1-4)GlcNAc(b1-3)Gal(b1-4)GlcNAc(b1-3)Gal(b1-4)GlcNAc
# Method in brief: as §1
# [10] = target: GlcNAc(a1-4)Gal(b1-4)GlcNAc(b1-3)Gal(b1-4)[Fuc(a1-3)]GlcNAc(b1-3)Gal(b1-4)[Fuc(a1-3)]GlcNAc
# Method in brief: as §1
# [11] = target: GlcNAc(a1-6)Gal(b1-4)GlcNAc
# Method in brief: as §1
# [12] = target: GlcNAc(b1-2)Gal(b1-3)GalNAc
# Method in brief: as §1
# [13] = target: GlcNAc(b1-2)Man(a1-3)[GlcNAc(b1-2)Man(a1-6)]Man(b1-4)GlcNAc(b1-4)GlcNAc
# Method in brief: as §1
# [14] = target: GlcNAc(b1-2)Man(a1-3)[GlcNAc(b1-2)Man(a1-6)]Man(b1-4)GlcNAc(b1-4)[Fuc(a1-6)]GlcNAc
# Method in brief: as §1
# [15] = target: GlcNAc(b1-2)Man(a1-3)[GlcNAc(b1-4)][GlcNAc(b1-2)Man(a1-6)]Man(b1-4)GlcNAc(b1-4)GlcNAc
# Method in brief: as §1
# [16] = target: GlcNAc(b1-2)Man(a1-3)[GlcNAc(b1-4)][GlcNAc(b1-2)Man(a1-6)]Man(b1-4)GlcNAc(b1-4)[Fuc(a1-6)]GlcNAc
# Method in brief: as §1
# [17] = target: GlcNAc(b1-2)[GlcNAc(b1-4)]Man(a1-3)[GlcNAc(b1-2)Man(a1-6)]Man(b1-4)GlcNAc(b1-4)GlcNAc
# Method in brief: as §1
# [18] = target: GlcNAc(b1-2)[GlcNAc(b1-4)]Man(a1-3)[GlcNAc(b1-4)][GlcNAc(b1-2)Man(a1-6)]Man(b1-4)GlcNAc(b1-4)GlcNAc
# Method in brief: as §1
binder,measurement,setting,value
B1,glycan array binding signal (z-score),Glc(b1-6)Glc,0.231
same,glycan array binding signal (z-score),GlcA(b1-3)Gal,0.029
same,glycan array binding signal (z-score),GlcA(b1-3)GlcNAc,-0.337
same,glycan array binding signal (z-score),GlcA(b1-6)Gal,0.054
same,glycan array binding signal (z-score),[1],-0.154
same,glycan array binding signal (z-score),[2],-0.066
same,glycan array binding signal (z-score),[3],-0.362
same,glycan array binding signal (z-score),[4],2.45
same,glycan array binding signal (z-score),[5],10.8
same,glycan array binding signal (z-score),[6],5.29
same,glycan array binding signal (z-score),[7],4.48
same,glycan array binding signal (z-score),[8],7.75
same,glycan array binding signal (z-score),[9],10.9
same,glycan array binding signal (z-score),[10],6.35
same,glycan array binding signal (z-score),[11],-0.355
same,glycan array binding signal (z-score),[12],-0.279
same,glycan array binding signal (z-score),[13],-0.317
same,glycan array binding signal (z-score),[14],-0.396
same,glycan array binding signal (z-score),[15],-0.259
same,glycan array binding signal (z-score),[16],-0.417
same,glycan array binding signal (z-score),[17],-0.323
same,glycan array binding signal (z-score),[18],1.45
